Consider 27 compounds from the antibiotic and cytotoxicity screens of Wong et al. (2023).

Assay [1] concerns HSkMC (human skeletal muscle cells). The experiment in a line: cytotoxicity call (relative viability < 0.9). Particulars: 10 µM.
Assay [2] deals with HepG2. As to the kind of experiment: cytotoxicity call (relative viability < 0.9). Particulars: 10 µM.
Assay [3] concerns S. aureus RN4220. As to the kind of experiment: growth inhibition call (relative growth <= 0.2). Particulars: 50 µM.

This is one part of the list.

Take `C[C@@H]1CN([C@H](C)CO)S(=O)(=O)c2ccc(C#Cc3ccccc3F)cc2O[C@H]1CN(C)C(=O)c1ccc2c(c1)OCO2`: the cytotoxicity call in assay [1] and in assay [2] was “inactive” in each case. The growth inhibition call in assay [3] was “inactive”.
`CC(C)N1C[C@@H](CN(C)Cc2ccc(Cl)c(Cl)c2)Oc2c(NC(=O)c3ccncc3)cccc2C1=O`: the cytotoxicity call in assay [1] and in assay [2] was “inactive” each time. Moreover, the growth inhibition call in assay [3] was “inactive”.
Turning to `CCC(=O)N1CCC[C@](C)(C(=O)NS(=O)(=O)c2ccc(S(C)(=O)=O)cc2)C1`, the cytotoxicity call in assay [1] and in assay [2] was “inactive” each time. For the same compound, the growth inhibition call in assay [3] is “inactive”.
As for `C[C@@H]1CN([C@H](C)CO)C(=O)CCCn2cc(nn2)CO[C@@H]1CN(C)S(=O)(=O)c1ccc2c(c1)OCCCO2`, the cytotoxicity call in assay [1] and in assay [2] was “inactive” throughout. For the same compound, the growth inhibition call in assay [3] was “inactive”.
On to `C[C@H](CO)N1C[C@H](C)[C@H](CN(C)C(=O)Nc2ccc(C(F)(F)F)cc2)Oc2ccc(NC(=O)CCC(F)(F)F)cc2C1=O`, for which the cytotoxicity call in assay [1] and in assay [2] was “inactive” throughout. Further, in assay [3], the growth inhibition call was “inactive”.
With `COc1ccc2c3c([nH]c2c1)[C@@H](CO)N(C[C@]13CCN(CC1)Cc1ccccc1)S(=O)(=O)c1cn(cn1)C`, the cytotoxicity call in assay [1] and in assay [2] was “inactive” throughout. In addition, the growth inhibition call in assay [3] was “inactive”.
Turning to `C[C@@H]1CN([C@H](C)CO)C(=O)Cc2cc(NC(=O)CCN3CCOCC3)ccc2O[C@H]1CN(C)CC1CCCCC1`, the cytotoxicity call in assay [1] and in assay [2] was “inactive” each time. Further, the growth inhibition call in assay [3] was “inactive”.
On to `Cc1ccc(S(=O)(=O)N(C)C[C@@H]2Oc3ccc(NS(=O)(=O)c4cn(C)cn4)cc3CC(=O)N([C@@H](C)CO)C[C@@H]2C)cc1`, for which the cytotoxicity call in assay [1] and in assay [2] was “inactive” throughout. The growth inhibition call in assay [3] was “inactive”.
As for `COc1ccc(S(=O)(=O)N(C)C[C@H]2OCCCC[C@H](C)Oc3ccc(NC(=O)c4ccccc4)cc3C(=O)N([C@@H](C)CO)C[C@H]2C)cc1`, the cytotoxicity call in assay [1] and in assay [2] was “inactive” in each case. Besides, the growth inhibition call in assay [3] is “inactive”.
For the compound `C[C@H](CO)N1C[C@H](C)[C@H](CN(C)S(=O)(=O)c2cccc(F)c2)Oc2ncc(C#Cc3ccc(F)cc3)cc2C1=O`, the cytotoxicity call in assay [1] and in assay [2] was “inactive” throughout. Moreover, the growth inhibition call in assay [3] is “inactive”.
For `CC(=O)N1CCc2nc(N)sc2C1`, the cytotoxicity call in assay [1] and in assay [2] was “inactive” throughout. For the same compound, in assay [3], the growth inhibition call was “inactive”.
Consider `CCc1nc2ccc(C(=O)Nc3cc(-c4ccccc4)ccc3OC)cn2c1N(C)Cc1ccc(Cl)cc1`, for which the cytotoxicity call in assay [1] and in assay [2] was “inactive” in each case. In addition, the growth inhibition call in assay [3] is “inactive”.
Take `C[C@@H]1CN([C@H](C)CO)S(=O)(=O)c2ccc(C#Cc3cccnc3)cc2O[C@H]1CN(C)C(=O)Nc1ccc2c(c1)OCO2`: the cytotoxicity call in assay [1] and in assay [2] was “inactive” in each case. Moreover, in assay [3], the growth inhibition call was “inactive”.
`CC(C)NC(=O)N(C)C[C@@H]1OCCCC[C@@H](C)Oc2ccc(NC(=O)Nc3ccc(C(F)(F)F)cc3)cc2C(=O)N([C@@H](C)CO)C[C@@H]1C`: the cytotoxicity call in assay [1] and in assay [2] was “inactive” throughout. In assay [3], the growth inhibition call was “inactive”.
As for `C[C@H](CO)N1C[C@H](C)[C@H](CN(C)Cc2ccc(Cl)c(Cl)c2)OCCCC[C@H](C)Oc2ccc(NC(=O)C3CCCCC3)cc2C1=O`, the cytotoxicity call in assay [1] and in assay [2] was “inactive” in each case. The growth inhibition call in assay [3] is “inactive”.
Regarding `C[C@@H]1CCCCO[C@H](CN(C)S(=O)(=O)c2ccc(Cl)cc2)[C@H](C)CN([C@H](C)CO)C(=O)c2cc(NC(=O)CCC(F)(F)F)ccc2O1`, the cytotoxicity call in assay [1] is “inactive”. The cytotoxicity call in assay [2] is “active”. Moreover, in assay [3], the growth inhibition call is “inactive”.
As for `CO[C@H]1CN(C)C(=O)c2ccc(NC(=O)Nc3ccccc3F)cc2OC[C@@H](C)N(Cc2ccccc2C(=O)O)C[C@@H]1C`, the cytotoxicity call in assay [1] and in assay [2] was “inactive” throughout. Besides, in assay [3], the growth inhibition call was “inactive”.
With `Cn1c(=O)c2c(nc(N3CCOCC3)n2CCN)n(C)c1=O`, the cytotoxicity call in assay [1] and in assay [2] was “inactive” each time. The growth inhibition call in assay [3] is “inactive”.
For the compound `CCCCS(=O)(=O)NC1=NCN(CCO)CN1`, the cytotoxicity call in assay [1] and in assay [2] was “inactive” throughout. For the same compound, in assay [3], the growth inhibition call was “inactive”.
Regarding `C[C@H](CO)N1C[C@H](C)[C@@H](CN(C)S(=O)(=O)c2ccccc2)Oc2ccc(NS(=O)(=O)c3ccc(F)cc3)cc2CC1=O`, the cytotoxicity call in assay [1] and in assay [2] was “inactive” in each case. Moreover, the growth inhibition call in assay [3] was “inactive”.
In the case of `O=C(C[C@@H]1CC[C@@H](NS(=O)(=O)c2ccc(F)cc2)[C@H](CO)O1)NCc1ccc(Cl)c(Cl)c1`, the cytotoxicity call in assay [1] and in assay [2] was “inactive” throughout. In assay [3], the growth inhibition call is “inactive”.
Turning to `COc1ccc(CNC(=O)[C@H](c2ccc(C)cc2)N(Cc2cccs2)C(=O)c2ccc3c(c2)OCCO3)cc1`, in assay [1], the cytotoxicity call is “active”. Further, the cytotoxicity call in assay [2] was “inactive”. The growth inhibition call in assay [3] is “inactive”.
For the compound `CO[C@@H]1[C@@H](O[C@@H]2O[C@H](C)[C@@H](O[C@H]3C[C@@](C)(O)[C@@H](O)[C@H](C)O3)[C@H](N(C)C)[C@H]2O)[C@@H](CC=O)C[C@@H](C)[C@@H](O[C@H]2CC[C@H](N(C)C)[C@@H](C)O2)/C=C/C=C/CC(C)OC(=O)C[C@H]1OC(C)=O` (stereo partly specified), the cytotoxicity call in assay [1] and in assay [2] was “inactive” in each case. Also, the growth inhibition call in assay [3] was “inactive”.
Regarding `CN1CCN(C(=O)C[C@@H]2C=C[C@@H](NC(=O)c3ccc4c(c3)OCO4)[C@@H](CO)O2)CC1`, the cytotoxicity call in assay [1] and in assay [2] was “inactive” throughout. In addition, the growth inhibition call in assay [3] is “inactive”.
Consider `Cc1ccc(S(=O)(=O)N(C)C[C@@H]2Oc3ccc(NC(=O)C4CC4)cc3C(=O)N([C@H](C)CO)C[C@H]2C)cc1`, for which the cytotoxicity call in assay [1] and in assay [2] was “inactive” in each case. The growth inhibition call in assay [3] is “inactive”.
For the compound `CC(C)NC(=O)Nc1ccc2c(c1)C(=O)N([C@H](C)CO)C[C@H](C)[C@H](CN(C)S(=O)(=O)c1cccs1)O2`, the cytotoxicity call in assay [1] and in assay [2] was “inactive” each time. For the same compound, the growth inhibition call in assay [3] was “inactive”.
Take `Cc1noc(C)c1S(=O)(=O)Nc1ccc2c(c1)C(=O)N([C@H](C)CO)C[C@@H](C)[C@@H](CN(C)CC1CCCCC1)OCCCC[C@H](C)O2`: the cytotoxicity call in assay [1] and in assay [2] was “inactive” each time. The growth inhibition call in assay [3] was “inactive”.
